Measured values reported in paper PMC10987633, “Structural basis for RAD18 regulation by MAGEA4 and its implications for RING ubiquitin ligase binding by MAGE family proteins” (The EMBO Journal, 2024).

Target: the molecule itself
Assay: AUC; sedimentation velocity of the RAD18/RAD6 complex, 0.5 mg/ml, 42,000 rpm, 4 °C, SEC buffer; RAD18 dimer within the complex

B1: His-tagged full-length RAD18 wild type (enzyme)
chain: not shown
notes: RAD18, RING E3 ubiquitin ligase, human, Uniprot […], […], full length; Cloned into PET15C; Dimer in the RAD18/RAD6 complex by AUC and mass photometry; also called RAD18 WT; FL RAD18; source: E. coli BL21star; co-expressed with untagged MAGEA4, in cleared lysate (His pull-down); co-expressed with RAD6 and purified as RAD18/RAD6 (TALON, SEC); not shown: His tag, N-terminal, kept
Q: B1 was tested. Which “stoichiometry N” value did it give?
A: 2
